PubChem BioAssay (NCI)
Values joined by “and” are separate entries in the source; they are usually repeats but may differ in a detail not shown here. Equal values may be shown once.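 In this assay, cells in 96-well plates receive the compound at five concentrations for 48 hours. Endpoints are linearly interpolated between the surrounding concentrations. GI50 marks 50% less growth. TGI: concentration producing complete growth inhibition.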

system: NCI-H322M lung; assay: DTP human tumour cell line panel, 48 h

| Structure (SMILES) | TGI | GI50 |
| --- | --- | --- |
| CC(=O)OCC1OC(n2c(-c3ccccc3)c(N=Nc3ccccc3)c(C)c(C#N)c2=S)C(OC(C)=O)C(OC(C)=O)C1OC(C)=O (stereo not drawn) | > 100 µM |  |
| OCCOCn1nncc1Cn1ncc2c(SCc3ccccc3)ncnc21 | > 100 µM |  |
| CC[O-].CC[O-].O=S(=O)([O-])c1ccc([O-])c2ncccc12.O=S(=O)([O-])c1ccc([O-])c2ncccc12.[Ti+4] | > 100 µM | 27 µM |
| COc1ccc(Cn2cc3c(c2)-c2oncc2CC3)cc1 | > 100 µM | 5.84 µM |
| O=c1[nH]c2nc3ccccc3nc2[nH]c1=O | > 100 µM |  |
| CCC1=NC(CO)[C@H](c2ccccc2)O1 (stereo partly drawn) | > 100 µM |  |
| CSc1cc(=O)n2c3ccccc3c3ccnc1c32 | > 100 µM |  |
| O=C1C=CC(=O)N1n1c(-c2ccccc2)n[nH]c1=O | > 100 µM |  |
| Cc1cc2c(cc1Cl)SC1=NN(C)C(N(C)C)N1S2(=O)=O (stereo not drawn) | > 100 µM | > 100 µM |
| COc1cc(/C=C2\C(=O)Nc3ccc(N(C)C)cc32)cc(OC)c1OC | > 30.4 µM | 3.47 µM |
| CCCCN(CCCC)c1c([N+](=O)[O-])c(=O)nc2ccccn12 | 67.6 µM |  |
| CN(C)c1ccc(/C=C(\NC(=O)c2ccccc2)c2nn(C)c(=O)o2)cc1 | > 100 µM |  |
| COc1ccc2cc(-c3c(-c4ccncc4)nc(-c4ccc(S(C)(=O)=O)cc4C)n3C)ccc2c1 | > 25 µM | 15.6 µM |
| C=C1N(C=O)C(C)(C)N(O)C1(C)C | > 100 µM |  |
| Cc1ccc2nc(-c3ccc(N(C)C)c(Br)c3)cn2c1 | > 100 µM | > 100 µM |
| CCCOc1ccc2nc(NC(=O)OC)[nH]c2c1 | > 100 µM | > 20 µM |
| NC(=S)NNc1c([N+](=O)[O-])cnn(-c2ccccc2)c1=O | 31.8 µM |  |
| CC1CCC2(NC1)OC1CC3C4CC=C5CC(OC6OC(CO)C(OC7OC(C)C(O)C(O)C7O)C(O)C6OC6OC(C)C(O)C(O)C6O)CCC5(C)C4CCC3(C)C1C2C (stereo not drawn) | 4.98 µM |  |
| CCN(CC)C(=S)Oc1cc2oc(=O)cc(C)c2cc1Cl | > 100 µM |  |
| Cc1sc2nc3c4ccccc4c(NCCCN(C)C)nn3c(=O)c2c1C | 26.8 µM | 13 µM |
| CSc1nc(NC(C)C)c2c(n1)Sc1nc3ccccc3n1N=C2 | 19.1 µM |  |
| COc1cc(C(=O)Oc2ccc3c(c2)OCO3)cc(OC)c1OC | > 100 µM |  |
| CN(C)CCCNC(=O)c1ccc2c(c1)oc1cc3ccccc3c(=O)n12 | 41.2 µM | 21 µM |
| CC[C@]1(O)C(=O)OCc2c1cc1n(c2=O)Cc2cc3c(N)cccc3nc2-1 | > 100 µM |  |
| CN(C)/N=C(/c1nc2ccc(Cl)cc2[nH]c1=O)C(O)c1ccc(C(O)/C(=N\N(C)C)c2nc3ccc(Cl)cc3[nH]c2=O)cc1 (stereo not drawn) | > 100 µM |  |

| Structure (SMILES) | TGI | GI50 |
| --- | --- | --- |
| S=C(N/N=C\C(=N/NC(=S)N1CCCCC1)c1ccccc1)N1CCCCC1 | 3.85 µM |  |
| Cc1cc2ncn(C3CCCCO3)c2cc1C (stereo not drawn) | > 100 µM |  |
| COc1cc(C(c2c(O)c3ccccc3oc2=O)c2c(O)c3ccccc3oc2=O)cc(Br)c1O | 33.8 µM |  |
| O=C1C(c2ccccc2)=[N+]([O-])c2ccccc21 | 39.7 µM |  |
| CN(C)CC1CCC/C(=C\c2ccc(OC(=O)c3ccc(Cl)cc3)cc2)C1=O (stereo not drawn) | 12.5 µM |  |
| C/C(=N\N(c1ccccc1)c1ccccc1)c1c(O)cc(C)oc1=O | > 100 µM |  |
| COc1ccc(C2C3=C(COC3=O)Oc3cc4c(cc32)OCO4)c(OC)c1 (stereo not drawn) | > 100 µM |  |
| C1=C2C3=[N+](CCCCC3)CC2Cc2ccsc21 (stereo not drawn) | > 100 µM |  |
| O=C(O)c1ccc2c(c1)CCCC(c1ccc(Cl)cc1Cl)=C2c1ccc(O[C@H]2CCN(CCCF)C2)cc1 | 30 µM | 15.1 µM |
| N.N.N.N.O=C([O-])C(Cl)Cl.O=C([O-])C(Cl)Cl.[Co+3].[O-][Cl+3]([O-])([O-])[O-] | > 100 µM | > 100 µM |
| NCCCCNc1ccc2c(=O)[nH][nH]c(=O)c2c1 | > 100 µM |  |
| NC(N)=NCCC1OC(=O)C2=C1c1c(O)ccc3nccc(c13)O2 (stereo not drawn) | > 100 µM | > 100 µM |
| COc1ccc(/C=C2\CCCC(C(NO)c3ccc(OC)cc3)C2=NO)cc1 (stereo not drawn) | > 100 µM |  |
| CC(CCC(=O)O)C(=O)O (stereo not drawn) | > 100 µM |  |
| CSC(SC)=C(C(=O)O)P(=O)(O)O | > 100 µM |  |
| Cc1ccc(-c2cc(-c3ccco3)c(C#N)c(=O)n2C2OC(OC(=O)c3ccccc3)C(OC(=O)c3ccccc3)C2OC(=O)c2ccccc2)cc1 (stereo not drawn) | > 100 µM |  |
| CCn1c2ccc(C(=O)CCCN3CCCCC3)cc2c2cc(C(=O)CCCN3CCCCC3)ccc21 | 18.5 µM |  |
| COC(=O)c1nc(Cl)nc(Cl)c1Cl | > 100 µM |  |
| CCOC(=O)/C=C1\CCCC12OCCO2 | > 100 µM |  |
| COC(=O)Cc1ccc2c(cnn2-c2ccccc2)c1OC | > 10 µM |  |
| CCCCSc1nsc(N(C(=O)c2ccccc2)C(=O)c2ccccc2)n1 | > 100 µM |  |
| Cc1cc(C)c(S(=O)(=O)N(CCCN)OCCCON(CCCN)S(=O)(=O)c2c(C)cc(C)cc2C)c(C)c1 | 4.34 µM |  |
| O=C(N/N=C(/CCN1CCCC1)CC(c1ccccc1)c1c(O)c2ccccc2oc1=O)c1ccncc1 (stereo not drawn) | > 100 µM |  |
| C=CC(=O)Nc1cc2c(Nc3ccc(F)c(Cl)c3)ncnc2cc1OCCCN1CCOCC1 | 3.3 µM and > 6.03 µM | < 0.0109 µM and 0.0239 µM |
| CO[C@H]1SC[C@H](OC(C)=O)[C@H](OC(C)=O)[C@H]1OC(C)=O | > 100 µM |  |
